Laboratory results as given in the supplement of paper PMC8728848.
This is one part of the list.

How the values were obtained:
Experiment in all cases: glycan array binding signal (z-score within array); higher = stronger binding
Conditions in all cases: glycan notation: IUPAC condensed, linker removed
[1] = biological target: Fuc(a1-2)[Gal(a1-3)]Gal(b1-4)[Fuc(a1-3)]GlcNAc(b1-3)GalNAc
How it was run: (§1)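 Arrays were curated from the Consortium for Functional Glycomics database, 3228 in total, and kept only where the protein sequence was available. Binding is expressed as a within-array Z-score. This score was averaged across arrays of the same protein sequence at different concentrations or buffers and across linkers, and negative values can be read as non-binding.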

[2] = biological target: Fuc(a1-2)[Gal(a1-4)]Gal(b1-4)GlcNAc
How it was run: as §1

[3] = biological target: Fuc(a1-2)[GalNAc(a1-3)]Gal
How it was run: as §1

[4] = biological target: Fuc(a1-2)[GalNAc(a1-3)]Gal(b1-3)GalNAc(a1-3)[Fuc(a1-2)]Gal(b1-4)GlcNAc
How it was run: as §1

[5] = biological target: Fuc(a1-2)[GalNAc(a1-3)]Gal(b1-3)GalNAc(b1-3)Gal(a1-4)Gal(b1-4)Glc
How it was run: as §1

[6] = biological target: Fuc(a1-2)[GalNAc(a1-3)]Gal(b1-3)GlcNAc
How it was run: as §1

[7] = biological target: Fuc(a1-2)[GalNAc(a1-3)]Gal(b1-3)GlcNAc(b1-2)Man(a1-3)[Fuc(a1-2)[GalNAc(a1-3)]Gal(b1-3)GlcNAc(b1-2)Man(a1-6)]Man(b1-4)GlcNAc(b1-4)GlcNAc
How it was run: as §1

[8] = biological target: Fuc(a1-2)[GalNAc(a1-3)]Gal(b1-3)GlcNAc(b1-2)Man(a1-3)[Fuc(a1-2)[GalNAc(a1-3)]Gal(b1-3)GlcNAc(b1-2)Man(a1-6)]Man(b1-4)GlcNAc(b1-4)[Fuc(a1-6)]GlcNAc
How it was run: as §1

[9] = biological target: Fuc(a1-2)[GalNAc(a1-3)]Gal(b1-3)GlcNAc(b1-3)GalNAc
How it was run: as §1

[10] = biological target: Fuc(a1-2)[GalNAc(a1-3)]Gal(b1-3)GlcNAc(b1-6)GalNAc
How it was run: as §1

[11] = biological target: Fuc(a1-2)[GalNAc(a1-3)]Gal(b1-4)Glc
How it was run: as §1

[12] = biological target: Fuc(a1-2)[GalNAc(a1-3)]Gal(b1-4)GlcNAc
How it was run: as §1

[13] = biological target: Fuc(a1-2)[GalNAc(a1-3)]Gal(b1-4)GlcNAc(b1-2)Man
How it was run: as §1

[14] = biological target: Fuc(a1-2)[GalNAc(a1-3)]Gal(b1-4)GlcNAc(b1-2)Man(a1-3)[Fuc(a1-2)[GalNAc(a1-3)]Gal(b1-4)GlcNAc(b1-2)Man(a1-6)]Man(b1-4)GlcNAc(b1-4)GlcNAc
How it was run: as §1

[15] = biological target: Fuc(a1-2)[GalNAc(a1-3)]Gal(b1-4)GlcNAc(b1-2)Man(a1-3)[Fuc(a1-2)[GalNAc(a1-3)]Gal(b1-4)GlcNAc(b1-2)Man(a1-6)]Man(b1-4)GlcNAc(b1-4)[Fuc(a1-6)]GlcNAc
How it was run: as §1

[16] = biological target: Fuc(a1-2)[GalNAc(a1-3)]Gal(b1-4)GlcNAc(b1-3)Gal(b1-4)GlcNAc
How it was run: as §1

[17] = biological target: Fuc(a1-2)[GalNAc(a1-3)]Gal(b1-4)GlcNAc(b1-3)Gal(b1-4)GlcNAc(b1-3)Gal(b1-4)GlcNAc
How it was run: as §1

[18] = biological target: Fuc(a1-2)[GalNAc(a1-3)]Gal(b1-4)GlcNAc(b1-3)GalNAc
How it was run: as §1

[19] = biological target: Fuc(a1-2)[GalNAc(a1-3)]Gal(b1-4)GlcNAc(b1-3)[Fuc(a1-2)[GalNAc(a1-3)]Gal(b1-4)GlcNAc(b1-6)]GalNAc
How it was run: as §1

[20] = biological target: Fuc(a1-2)[GalNAc(a1-3)]Gal(b1-4)GlcNAc(b1-6)GalNAc
How it was run: as §1

[21] = biological target: Fuc(a1-2)[GalNAc(a1-3)]Gal(b1-4)[Fuc(a1-3)]GlcNAc
How it was run: as §1

[22] = biological target: Fuc(a1-2)[GalNAc(a1-3)]Gal(b1-4)[Fuc(a1-3)]GlcNAc(b1-3)GalNAc
How it was run: as §1

[23] = biological target: Fuc(a1-2)[GalNAc(a1-4)]Gal(b1-4)GlcNAc
How it was run: as §1

[24] = biological target: Fuc(a1-2)[GalNAc(b1-3)]Gal
How it was run: as §1

Fuc(a1-3)GlcNAc = biological target: Fuc(a1-3)GlcNAc
How it was run: as §1

[25] = biological target: Fuc(a1-3)[Gal(b1-4)]Glc6S
How it was run: as §1

[26] = biological target: Fuc(a1-3)[Gal(b1-4)]GlcNAc
How it was run: as §1

[27] = biological target: Fuc(a1-3)[Gal(b1-4)]GlcNAc(b1-2)Man
How it was run: as §1

[28] = biological target: Fuc(a1-3)[Gal(b1-4)]GlcNAc(b1-2)Man(a1-3)[Fuc(a1-3)[Gal(b1-4)]GlcNAc(b1-2)Man(a1-6)]Man(b1-4)GlcNAc(b1-4)GlcNAc
How it was run: as §1

[29] = biological target: Fuc(a1-3)[Gal(b1-4)]GlcNAc(b1-2)Man(a1-3)[Fuc(a1-3)[Gal(b1-4)]GlcNAc(b1-2)Man(a1-6)]Man(b1-4)GlcNAc(b1-4)[Fuc(a1-6)]GlcNAc
How it was run: as §1

[30] = biological target: Fuc(a1-3)[Gal(b1-4)]GlcNAc(b1-3)Gal(b1-3)[Fuc(a1-4)]GlcNAc
How it was run: as §1

[31] = biological target: Fuc(a1-3)[Gal(b1-4)]GlcNAc(b1-3)Gal(b1-4)[Fuc(a1-3)]GlcNAc
How it was run: as §1

[32] = biological target: Fuc(a1-3)[Gal(b1-4)]GlcNAc(b1-3)Gal(b1-4)[Fuc(a1-3)]GlcNAc(b1-3)Gal(b1-4)[Fuc(a1-3)]GlcNAc
How it was run: as §1

[33] = biological target: Fuc(a1-3)[Gal(b1-4)]GlcNAc(b1-3)GalNAc
How it was run: as §1

[34] = biological target: Fuc(a1-3)[Gal(b1-4)]GlcNAc(b1-6)GalNAc
How it was run: as §1

[35] = biological target: Fuc(a1-3)[Gal(b1-4)]GlcNAc(b1-6)[Gal(b1-3)GlcNAc(b1-3)]Gal(b1-4)Glc
How it was run: as §1

[36] = biological target: Fuc(a1-3)[Gal(b1-4)]GlcNAc6S
How it was run: as §1

[37] = biological target: Fuc(a1-3)[Gal3S(b1-4)]Glc
How it was run: as §1

B1: Als1 (Candida albicans), P46590 (protein)
chain: KTITGVFDSFNSLTWSNAANYAFKGPGYPTWNAVLGWSLDGTSANPGDTFTLNMPCVFKYTTSQTSVDLTADGVKYATCQFYSGEEFTTFSTLTCTVNDALKSSIKAFGTVTLPIAFNVGGTGSSTDLEDSKCFTAGTNTVTFNDGDKDISIDVEFEKSTVDPSGYLYASRVMPSLNKVTTLFVAPQCENGYTSGTMGFSSSNGDVAIDCSNIHIGITKGLNDWNYPVSSESFSYTKTCTSNGIQIKYQNVPAGYRPFIDAYISATDVNQYTLAYTNDYTCAGSRLQSKPFTLRWTGYKNSDAGSNGIVIVATTRTVTDSTTAVTTLPFNPSVDKTKTIEILQPIPTTTITTSYVGVTTSYLTKTAPIGETATVIVDVPYHTTTTVTSEWTGTITTTTTRTNPTDSIDTVVVQVP
**Q.** Which “glycan array binding signal (z-score)” value [1] does the source give for B1 here?
**A.** 0.685

**Q.** What about the “glycan array binding signal (z-score)” value [2] of the same binder?
**A.** -0.577

**Q.** And the “glycan array binding signal (z-score)” value [3]?
**A.** -0.777

**Q.** What about the “glycan array binding signal (z-score)” value [4] of the same binder?
**A.** -0.496

**Q.** What about the “glycan array binding signal (z-score)” value [5] of the same binder?
**A.** -0.643

**Q.** And the “glycan array binding signal (z-score)” value [6]?
**A.** -0.204

**Q.** And the “glycan array binding signal (z-score)” value [7]?
**A.** -0.646

**Q.** What about the “glycan array binding signal (z-score)” value [8] of the same binder?
**A.** -0.413

**Q.** And the “glycan array binding signal (z-score)” value [9]?
**A.** 0.39

**Q.** And the “glycan array binding signal (z-score)” value [10]?
**A.** -0.055

**Q.** What about the “glycan array binding signal (z-score)” value [11] of the same binder?
**A.** -0.307

**Q.** What about the “glycan array binding signal (z-score)” value [12] of the same binder?
**A.** -0.357

**Q.** And the “glycan array binding signal (z-score)” value [13]?
**A.** -0.488

**Q.** And the “glycan array binding signal (z-score)” value [14]?
**A.** -0.448

**Q.** And the “glycan array binding signal (z-score)” value [15]?
**A.** -0.337

**Q.** What about the “glycan array binding signal (z-score)” value [16] of the same binder?
**A.** -0.31

**Q.** And the “glycan array binding signal (z-score)” value [17]?
**A.** 0.246

**Q.** And the “glycan array binding signal (z-score)” value [18]?
**A.** -0.403

**Q.** What about the “glycan array binding signal (z-score)” value [19] of the same binder?
**A.** -0.61

**Q.** And the “glycan array binding signal (z-score)” value [20]?
**A.** -0.172

**Q.** And the “glycan array binding signal (z-score)” value [21]?
**A.** 1.25

**Q.** What about the “glycan array binding signal (z-score)” value [22] of the same binder?
**A.** 2.38

**Q.** And the “glycan array binding signal (z-score)” value [23]?
**A.** -0.813

**Q.** What about the “glycan array binding signal (z-score)” value [24] of the same binder?
**A.** -0.535

**Q.** What about the “glycan array binding signal (z-score)” value (Fuc(a1-3)GlcNAc) of the same binder?
**A.** -0.139

**Q.** And the “glycan array binding signal (z-score)” value [25]?
**A.** 3.38

**Q.** What about the “glycan array binding signal (z-score)” value [26] of the same binder?
**A.** -0.443

**Q.** And the “glycan array binding signal (z-score)” value [27]?
**A.** 0.019

**Q.** What about the “glycan array binding signal (z-score)” value [28] of the same binder?
**A.** 0.227

**Q.** And the “glycan array binding signal (z-score)” value [29]?
**A.** 0.146

**Q.** What about the “glycan array binding signal (z-score)” value [30] of the same binder?
**A.** -0.672

**Q.** What about the “glycan array binding signal (z-score)” value [31] of the same binder?
**A.** -0.268

**Q.** What about the “glycan array binding signal (z-score)” value [32] of the same binder?
**A.** -0.652

**Q.** What about the “glycan array binding signal (z-score)” value [33] of the same binder?
**A.** -0.113

**Q.** What about the “glycan array binding signal (z-score)” value [34] of the same binder?
**A.** 0.895

**Q.** And the “glycan array binding signal (z-score)” value [35]?
**A.** 0.093

**Q.** What about the “glycan array binding signal (z-score)” value [36] of the same binder?
**A.** -0.009

**Q.** What about the “glycan array binding signal (z-score)” value [37] of the same binder?
**A.** -0.307
